Data as given in patent US20190256592A1.
Results are given in words; binding and its absence hold for the method and conditions named. Some entries that bind do so weakly or less than the wild type.

Columns and labels:
[1] = biological target: T1, CLPTM1 peptide G13 (residues 242-261 with C-terminal glycine) (human); experiment: ELISA; biotinylated peptide on streptavidin plate, GDF15 at 100 ng/ml, OD 450-620
T1 sequence (peptide, biotinylated (position not stated)): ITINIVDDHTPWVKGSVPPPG

[2] = biological target: T2, CLPTM1 peptide G9 (residues 162-181 with C-terminal glycine) (human); experiment: as above
T2 sequence (peptide, biotinylated (position not stated)): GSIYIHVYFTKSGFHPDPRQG

[3] = biological target: T3, CLPTM1 peptide G21 (residues 273-292 with C-terminal glycine) (human); experiment: as above
T3 sequence (peptide, biotinylated (position not stated)): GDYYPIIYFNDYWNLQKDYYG

[4] = biological target: T4, CLPTM1 peptide G10 (residues 182-201 with C-terminal glycine) (human); experiment: as above
T4 sequence (peptide, biotinylated (position not stated)): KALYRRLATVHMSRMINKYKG

[5] = biological target: T5, CLPTM1 peptide G14 (residues 262-281 with C-terminal glycine) (human); experiment: as above
T5 sequence (peptide, biotinylated (position not stated)): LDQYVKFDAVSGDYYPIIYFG

[6] = biological target: T6, CLPTM1 peptide G20 (residues 292-311 with C-terminal glycine) (human); experiment: as above
T6 sequence (peptide, biotinylated (position not stated)): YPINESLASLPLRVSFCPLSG

[7] = biological target: T7, …; experiment: ELISA: biotinylated CLPTM1 peptide on streptavidin plate, GDF15 at 100 ng/ml, detected with goat anti-GDF15 and anti-goat-HRP
T7 sequence (peptide, biotinylated; C-terminal glycine not from CLPTM1): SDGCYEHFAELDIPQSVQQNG

[8] = biological target: T8, …; experiment: as above; remark: listed apart in the source
T8 sequence (peptide, biotinylated; C-terminal glycine not from CLPTM1): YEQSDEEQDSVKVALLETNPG

[9] = biological target: T9, …; experiment: as above; remark: listed apart in the source
T9 sequence (peptide, biotinylated; C-terminal glycine not from CLPTM1): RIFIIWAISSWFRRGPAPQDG

[10] = biological target: T10, …; experiment: as above; remark: listed apart in the source
T10 sequence (peptide, biotinylated; C-terminal glycine not from CLPTM1): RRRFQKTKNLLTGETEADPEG

[11] = biological target: T11, …; experiment: as above; remark: listed apart in the source
T11 sequence (peptide, biotinylated; C-terminal glycine not from CLPTM1): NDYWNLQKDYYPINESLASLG

[12] = biological target: T12, …; experiment: as above; remark: listed apart in the source
T12 sequence (peptide, biotinylated; C-terminal glycine not from CLPTM1): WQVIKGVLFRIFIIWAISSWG

[13] = biological target: T13, …; experiment: as above; remark: listed apart in the source
T13 sequence (peptide, biotinylated; C-terminal glycine not from CLPTM1): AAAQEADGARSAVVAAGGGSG

[14] = biological target: T14, …; experiment: as above; remark: listed apart in the source
T14 sequence (peptide, biotinylated; C-terminal glycine not from CLPTM1): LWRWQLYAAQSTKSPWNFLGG

[15] = biological target: T15, …; experiment: as above; remark: listed apart in the source
T15 sequence (peptide, biotinylated; C-terminal glycine not from CLPTM1): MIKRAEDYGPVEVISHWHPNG

[16] = biological target: T16, …; experiment: as above; remark: listed apart in the source
T16 sequence (peptide, biotinylated; C-terminal glycine not from CLPTM1): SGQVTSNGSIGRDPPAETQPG

[17] = biological target: T17, …; experiment: as above; remark: listed apart in the source
T17 sequence (peptide, biotinylated; C-terminal glycine not from CLPTM1): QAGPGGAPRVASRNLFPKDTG

[18] = biological target: T18, …; experiment: as above; remark: listed apart in the source
T18 sequence (peptide, biotinylated; C-terminal glycine not from CLPTM1): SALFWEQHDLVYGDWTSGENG

[19] = biological target: T19, …; experiment: as above; remark: listed apart in the source
T19 sequence (peptide, biotinylated; C-terminal glycine not from CLPTM1): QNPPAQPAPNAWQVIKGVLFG

B1: Growth and Differentiation Factor 15 (GDF15) (ligand, UniProt Q99988 197-308, looked up)
chain: ARNGDHCPLGPGRCCRLHTVRASLEDLGWADWVLSPREVQVTMCIGACPSQFRAANMHAQIKTSLHRLKPDTVPAPCCVPASYNPMVLIQKTDTGVSLQTYDDLLAKDCHCI
[1]
  binding: binds
[2]
  binding: binds
[3]
  binding: binds
[4]
  binding: binds
[5]
  binding: binds
[6]
  binding: binds
[7]
  binding: no binding (tested: 100 ng/ml)
[8]
  binding: no binding (tested: 100 ng/ml)
[9]
  binding: no binding (tested: 100 ng/ml)
[10]
  binding: no binding (tested: 100 ng/ml)
[11]
  binding: no binding (tested: 100 ng/ml)
[12]
  binding: no binding (tested: 100 ng/ml)
[13]
  binding: no binding (tested: 100 ng/ml)
[14]
  binding: no binding (tested: 100 ng/ml)
[15]
  binding: no binding (tested: 100 ng/ml)
[16]
  binding: no binding (tested: 100 ng/ml)
[17]
  binding: no binding (tested: 100 ng/ml)
[18]
  binding: no binding (tested: 100 ng/ml)
[19]
  binding: no binding (tested: 100 ng/ml)
